In all, about 110,000 compounds went through this assay and about 230 (0.21%) showed an effect of 50% or more. This is one part of the list.
The compounds below were run against DPAP1 (Plasmodium falciparum, UniProt Q8IIJ9) (assay: primary screen, percent inhibition; read by cleavage of a fluorogenic dipeptide substrate; higher = more effect of the substance).
Parameters: species or system P. falciparum D10 trophozoite lysates; single well
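Note: 30 min substrate incubation versus DMSO and 10 µM JCP410 controls.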

DPAP1, sequence (Q8IIJ9 whole entry, looked up): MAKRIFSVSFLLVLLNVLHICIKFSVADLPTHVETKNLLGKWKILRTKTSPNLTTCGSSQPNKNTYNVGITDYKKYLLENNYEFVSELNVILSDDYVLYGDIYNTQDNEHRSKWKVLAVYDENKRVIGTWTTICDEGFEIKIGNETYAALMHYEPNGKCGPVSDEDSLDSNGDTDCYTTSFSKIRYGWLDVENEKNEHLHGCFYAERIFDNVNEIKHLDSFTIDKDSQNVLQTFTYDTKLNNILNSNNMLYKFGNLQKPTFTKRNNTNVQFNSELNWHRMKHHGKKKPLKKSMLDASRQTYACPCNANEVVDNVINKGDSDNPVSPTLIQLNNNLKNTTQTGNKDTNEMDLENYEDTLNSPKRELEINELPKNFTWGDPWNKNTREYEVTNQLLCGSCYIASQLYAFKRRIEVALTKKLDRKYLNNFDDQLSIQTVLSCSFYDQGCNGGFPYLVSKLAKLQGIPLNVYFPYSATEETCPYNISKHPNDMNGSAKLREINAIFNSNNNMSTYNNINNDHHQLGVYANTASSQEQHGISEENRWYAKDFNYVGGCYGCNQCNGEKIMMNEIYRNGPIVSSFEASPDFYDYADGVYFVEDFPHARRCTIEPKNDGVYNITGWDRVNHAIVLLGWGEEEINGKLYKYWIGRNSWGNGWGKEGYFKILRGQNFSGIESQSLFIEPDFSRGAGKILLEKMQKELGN

Compound	% Inhibition @ 10 uM [%]
CCN(CC)C(=O)CSc1nc(-c2cccc(C)c2)nc2c1Cc1c(CO)cnc(C)c1O2	2.49
O=C(NC1CCN(Cc2ccccc2)CC1)c1ccccc1	5.06
Cc1nn(-c2cccc(Cl)c2)c(O)c1/C=N/c1ccc(C(=O)O)c(O)c1	-4.76
O=C(NC1(C(F)(F)F)NC(=O)N(CCc2ccccc2)C1=O)c1ccco1 (stereo not drawn)	-0.891
CC1CN(Cc2nc3c(c(=O)n(C)c(=O)n3C)n2Cc2cccc(Cl)c2)CC(C)O1 (stereo not drawn)	-4.14
CCOC(=O)c1cnn2c(C)cc(C)nc12	0.427
CCC1=C(OC(=O)c2ccccc2)C(C)(C)C(c2ccccc2)OC1=O (stereo not drawn)	1.37
Cc1ccc(C(=O)Nc2scc(-c3ccccc3)c2C(=O)O)cc1	5.65
COc1cc(CN2CCN(Cc3cccc(C)c3)CC2)cc(OC)c1OC	-1.88
COc1ccc(C2NC(=O)NC(C)=C2C(=O)Nc2cccc(Cl)c2)cc1 (stereo not drawn)	-5.23
CCOC(=O)c1sc(NC(=O)CN2CCN(C)CC2)c(C(=O)OCC)c1C	-5.28
Cc1nc2ccccc2c2c1C(=O)N(Cc1cccnc1)C2=O	6.01
CCc1nn(C(C)C(=O)NCc2ccc(C)cc2)c(=O)c2cc3occc3n12 (stereo not drawn)	1.38
Clc1ccc(N2CCN(Cc3cccnc3)CC2)cc1	1.55
O=C(Nc1ccc(Cl)cc1)N1CCN(c2ccccn2)CC1	0.528
CCC(=O)NCc1nc2ccccc2n1Cc1ccc(C)cc1	-0.551
CCOC(=O)C1=C(CN2CC(C)CC(C)C2)NC(=O)NC1c1ccc(OC)cc1 (stereo not drawn)	-1.59
CC1CCN(c2c(NCC3CCC(C(=O)N4CCc5ccccc5C4)CC3)c(=O)c2=O)CC1 (stereo not drawn)	1.22
CCC(=O)c1c(C)nc2n(Cc3ccccc3)c3ccccc3n12	-1.22
CSCCC(C(=O)Nc1ccc(C)cc1)N1C(=O)c2ccccc2C1=O (stereo not drawn)	7.31
Cc1cccc(OCCCCN2CCCC2)c1	2.4
N#CCCN1CCN(C2=NC(=O)/C(=C/c3ccccc3Cl)S2)CC1	2.44
COc1ccc(NC(=O)C2=C(C)NC(=O)NC2c2cc(OC)c(OC)c(OC)c2)cc1 (stereo not drawn)	12.1
CC(=O)C12CCCCC1CC1C3CC=C4CC(O)CCC4(C)C3CCC12C (stereo not drawn)	-3.27
Cc1ccc(-c2csc(-c3cc4c(ccc5ccccc54)oc3=O)n2)c(C)c1	-4.11
CC12CCC(C(=O)Nc3ccccc3C(F)(F)F)(C(=O)C1=O)C2(C)C (stereo not drawn)	4.98
Cn1c(-c2cc[n+](C)c3ccccc23)[n+](C)c2ccccc21	-0.615
